This note sets out measurements from PubChem BioAssay AID1347073 (National Center for Advancing Translational Sciences (NCATS), 2019).

Hit rate of the full screen: of about 45,000 compounds, about 200 (0.44%) were called active. About 7% were inconclusive and are not listed. The call rests on the fitted dose curve; in most records, active means well fitted activation curve with a large enough effect; inconclusive means small, poorly fitted or top-dose-only effect; inactive means no such curve, though single readings can be large or run the other way. The list shows a part of the results.

A short description of this experiment: qHTS of TDP-43 Inhibitors: NCGC Sytravon Library Screen. Further: 0% is about no effect; nearly all actives have a fitted effect of over 55% in size. To be noted: yeast TDP-43 toxicity rescue, BacTiter-Glo growth, 24 h; series mostly up to 46.1 µM; growth rescue (activation): at the top concentration. The procedure, abridged: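 TDP-43-expressing yeast, pregrown in raffinose, seeded at OD600 0.02 in galactose medium with compound for 24 hr at 30 deg C. Growth read by BacTiter-Glo luminescence, so rescue of toxicity appears as activation.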
With `CC(C)c1ccccc1NC(=O)CNC(C)c1ccc(F)cc1` (stereo not drawn), the “growth rescue (activation)” value was inactive: 6.47%. With `CCOc1ccc(S(=O)(=O)N2CCCC(C(=O)NCc3ccncc3)C2)cc1C` (stereo not drawn) the figure was inactive: 9.14%; with `COc1cc(OC)cc(C(=O)NCC(=O)OCC(=O)NC(C)(C)C)c1`, inactive: 12%. With `COc1ccc2c(c1OC)C(=O)N(c1nccs1)C2` the figure was inactive: 18.9%. For the compound `O=C(O)c1cn(-c2ccc(F)cc2)c(=O)c2ccccc12`, the “growth rescue (activation)” value was inactive: 3.74%. With `COC(=O)c1ccc(NC(=S)NNC(=O)CC(C)C)cc1` the figure was inactive: -2.12%. With `S=c1[nH]cc(-c2ccc(Cl)cc2)n1-c1ccccc1` the figure was inactive: -9.7%. To `CN1CCN(C(=O)c2cc3sc4ccccc4c3s2)CC1` belongs inactive: 2.75%; to `C/C(=C\C(=O)c1ncc(C(F)(F)F)cc1Cl)N(C)C`, inactive: 3.57%. Regarding `C#CCOc1ccc(/C=C2/C(=O)N(c3cccc(C(=O)O)c3)N=C2C)cc1OC`, the “growth rescue (activation)” value is inactive: -8.28%.

As for `CCCc1cc(=O)[nH]c(SCC(=O)Nc2nonc2C)n1`, the “growth rescue (activation)” value is inactive: -16.2%.

Consider `COc1ccc(/C=N/Nc2nc(-c3ccc(Cl)cc3)cc(C(F)(F)F)n2)c(OC)c1`, for which the “growth rescue (activation)” value is inactive: 4.76%. With `COc1ccc(N(C(=O)c2snc(C(N)=O)c2N)C(C(=O)NC2CCCC2)c2ccc3ncccc3c2)cc1` (stereo not drawn) the figure was inactive: 0.462%; with `COCCNC(=O)C1(C)CCN(Cc2ccc(C(C)C)cc2)C1` (stereo not drawn), inactive: 10.2%.

Regarding `c1ccc(-c2cc3nc(NCc4cccs4)ccn3n2)cc1`, the “growth rescue (activation)” value is inactive: 19.7%. With `COc1ccc(NC(=O)CSc2nnnn2C)cc1S(=O)(=O)N1CCCCC1` the figure was inactive: -0.951%; with `CNc1nc(-c2ccccc2)nc(-c2ccc(OC)cc2)c1C#N`, inactive: -3.22%. To `COc1ccc(C(CNc2ncnc3sc(C)c(C)c23)N(C)C)cc1` (stereo not drawn) belongs inactive: -26.4%; to `Cc1ccc(C(=O)OCC(=O)NCc2cccs2)c(C)c1`, inactive: 14.9%. `O=C(CSc1nc2ccccc2c(=O)n1-c1ccc(SC(F)F)cc1)Nc1ccc(N2CCOCC2)cc1`: the “growth rescue (activation)” value is inactive: -8.81%. With `Cc1cc(=O)oc2cc(OCC(=O)N/N=C/c3ccccc3O)ccc12` the figure was inactive: 9.31%; with `Cc1cccc(C(c2c(C)nn(-c3ccccc3)c2N)c2c(C)nn(-c3ccccc3)c2N)c1`, inactive: 10.2%; with `OCCCNCc1ccc(N(c2ccccc2)c2ccccc2)cc1`, inactive: -18.9%. To `CC(NCC(O)COCc1ccc(Cl)cc1)c1ccccc1` (stereo not drawn) belongs inactive: 7.44%; to `CCCCNC(=O)C1CCN(c2nc(C)cc(C)n2)CC1`, inactive: 2.64%; to `O=C1c2c([N+](=O)[O-])cc([N+](=O)[O-])cc2S(=O)N1Cc1ccccc1` (stereo not drawn), inactive: -5.92%.

Consider `O=C(NC1CCS(=O)(=O)C1)c1cccc(S(=O)(=O)N2CCCC2)c1` (stereo not drawn), for which the “growth rescue (activation)” value was inactive: 6.26%.

On to `Cc1ccc(C)c(NC(=O)CSc2n[nH]c(-c3ccccn3)n2)c1`, for which the “growth rescue (activation)” value is inactive: 18.5%. To `CC(C)CC(=O)NC(NCC1CCCO1)C(Cl)(Cl)Cl` (stereo not drawn) belongs inactive: -39.6%. Regarding `CCN(CC)S(=O)(=O)c1cccc(C(=O)N/N=C/c2cccc(O)c2O)c1`, the “growth rescue (activation)” value is inactive: -0.865%.

For the compound `CCC(c1nnnn1Cc1ccccc1)N1CCN(c2ccc(OC)cc2)CC1` (stereo not drawn), the “growth rescue (activation)” value is inactive: 0.586%. With `CCOC(=O)C1(C)CCN1C(=O)COc1ccc(C(C)(C)C)cc1` (stereo not drawn) the figure was inactive: 3.49%; with `O=C1SCCC1NS(=O)(=O)c1ccccc1[N+](=O)[O-]` (stereo not drawn), inactive: 0.512%; with `CC1(C)C(=O)C2(CCCCC2)C(=O)OC1C(=O)c1ccccc1` (stereo not drawn), inactive: 0.663%. Consider `COc1cc(C2CC(=O)C3=C(C2)Nc2ncnn2C3c2cccs2)cc(OC)c1OC` (stereo not drawn), for which the “growth rescue (activation)” value is inactive: 13.2%.

As to `COc1ccc(C(NC(=O)C2CCN(CCCOc3ccccc3)CC2)c2ccccn2)cc1` (stereo not drawn), the “growth rescue (activation)” value is inactive: -9.37%. With `CN1CCN(S(=O)(=O)c2ccc(N(C)Cc3ccc(C(F)(F)F)cc3)c([N+](=O)[O-])c2)CC1` the figure was inactive: 12.2%. To `COc1cc(NS(=O)(=O)c2ccc(NC(=S)NC(=O)c3ccc(F)cc3)cc2)nc(OC)n1` belongs inactive: -0.428%; to `COc1cccc(OCC(=O)NNC(=O)CCc2ccccc2)c1`, inactive: 4.68%.

In the case of `CC(C)Cc1csc(NC(=O)c2ccc(Cl)cc2)c1C(=O)O`, the “growth rescue (activation)” value is inactive: 5.02%.

On to `COC(=O)[C@@H]1CCCN1C(=O)CCc1nnc(C2CCCCC2)o1`, for which the “growth rescue (activation)” value was inactive: -5.23%. With `CC(C)CCN(C(=O)c1csnn1)C(C(=O)NC1CCCC1)c1ccccc1` (stereo not drawn) the figure was inactive: 9.64%; with `COC(CNC(=O)c1ccc2c(c1)ncn2-c1ccc(C)cc1C)OC`, inactive: 12%.

As for `CCSc1nnc(C)c2ccccc12`, the “growth rescue (activation)” value was inactive: 33.1%.

For `COc1cc(-c2[nH]ncc2CN2CCSCC2)cc(OC)c1OC`, the “growth rescue (activation)” value is inactive: -7.18%. In the case of `O=C(OCC(=O)N1CCCC1)c1cnc(Cl)c(Cl)c1`, the “growth rescue (activation)” value was inactive: -6.5%. To `COc1cccc(C(=O)N/N=c2\sc3ccccc3n2C)c1` belongs inactive: 19%; to `O=C(CSc1ccccn1)N1CCN(C(=O)CSc2ccccn2)CC1`, inactive: 18.8%; to `Cc1ccc(OCC(=O)Nc2ccc(S(=O)(=O)Nc3ccccn3)cc2)cc1`, inactive: 0.375%. With `CCCOc1ccc(/C=N\NC(=O)CCc2n[nH]c(=O)[nH]c2=O)cc1OC` the figure was inactive: 8.21%; with `COc1ccc(/C=C(\NC(=O)c2ccccc2Cl)C(=O)NCCCC(=O)O)cc1`, inactive: 7.13%; with `Cc1ccc(NC(=O)CN(C)C(=O)Cc2ccc(Cl)c(Cl)c2)cc1`, inactive: -15.3%. To `COc1ccc(OCc2nnc3n2N=C(c2ccccc2)C(CC(=O)O)S3)cc1` (stereo not drawn) belongs inactive: -1.05%; to `COc1ccc(OCC(=O)Nn2c(-c3cccc(OC)c3)nc3ccccc3c2=O)cc1`, inactive: -8.56%; to `CC(=O)NCc1ccc(S(=O)(=O)NC(C)CCc2ccccc2)cc1` (stereo not drawn), inactive: -2.49%. For `CCN(CC)CCCN1C(=O)C(=O)/C(=C(/O)c2ccccc2)C1c1cc(OC)ccc1OC` (stereo not drawn), the “growth rescue (activation)” value was inactive: 28.9%.

For `C=CCNC(=S)NC1CC(C)(C)NC(C)(C)C1`, the “growth rescue (activation)” value is inactive: 2.83%.

Regarding `CCOc1ccccc1NC(=O)COC(=O)COc1c(Cl)cc(Cl)c2ccc(C)nc12`, the “growth rescue (activation)” value was inactive: 14.8%. To `COc1cccc(NC(=O)c2ccc3nc(C)c(N(C)Cc4ccc(NC(C)=O)cc4)n3c2)c1` belongs inactive: 8.72%. To `CC(C)c1ccc(NC(=O)C2(C)Cc3c(-c4ccc(C(N)=O)cc4)ccnc3O2)cc1` (stereo not drawn) belongs inactive: 24.5%; to `Fc1ccc(COc2ccc(-c3nnco3)cc2)c(Cl)c1`, inactive: 8.49%; to `CCc1cc2c(CN3CCN(Cc4ccccc4)CC3)cc(=O)oc2cc1O`, inactive: 2.12%.

Turning to `Cc1c(CC(=O)NCCCCCC(=O)O)c(=O)oc2cc3occ(-c4ccccc4)c3cc12`, the “growth rescue (activation)” value was inactive: 8.74%. To `COC(=O)c1cc2c(cc1NC(=O)CSCCc1ccccn1)OCO2` belongs inactive: 11.6%; to `CC[n+]1ccc(C)c2cc(P(=O)(c3ccccc3)c3ccccc3)ccc21`, inactive: -33.2%; to `COc1ccccc1-n1cc([C@@H]2C[C@H]3CN(c4ccccc4)C(=O)[C@]34CCCN24)cn1`, inactive: -7.66%. To `COc1ccc(CC(=O)NNC(=O)c2ccco2)cc1OC` belongs inactive: -19.7%. `CCn1c(/C=N/Nc2ccc(C(=O)O)cc2)nc2ccccc21`: the “growth rescue (activation)” value was inactive: -6.51%.
